Results as given in PubChem BioAssay AID488969 (Vanderbilt High Throughput Screening Facility, 2010).
Over roughly 110,000 compounds, “z-score” has its median near -0.1; the highest 2% begin near 2. The list shows a part of the results.

target: Metabotropic glutamate receptor 8 (Rattus norvegicus) (UniProt P70579); test: mGluR8 Gi/Go-coupled signaling modulation – cell-based, rat, thallium flux, HTS, primary screen (AID 488969); details: HEK293 rat mGluR8, GIRK (G protein-gated inwardly rectifying potassium channel) thallium flux, FluoZin2; at 10 µM; stronger effect = higher value; submaximal glutamate (EC20) added with thallium
UniProt P70579, sequence (P70579 whole entry, looked up): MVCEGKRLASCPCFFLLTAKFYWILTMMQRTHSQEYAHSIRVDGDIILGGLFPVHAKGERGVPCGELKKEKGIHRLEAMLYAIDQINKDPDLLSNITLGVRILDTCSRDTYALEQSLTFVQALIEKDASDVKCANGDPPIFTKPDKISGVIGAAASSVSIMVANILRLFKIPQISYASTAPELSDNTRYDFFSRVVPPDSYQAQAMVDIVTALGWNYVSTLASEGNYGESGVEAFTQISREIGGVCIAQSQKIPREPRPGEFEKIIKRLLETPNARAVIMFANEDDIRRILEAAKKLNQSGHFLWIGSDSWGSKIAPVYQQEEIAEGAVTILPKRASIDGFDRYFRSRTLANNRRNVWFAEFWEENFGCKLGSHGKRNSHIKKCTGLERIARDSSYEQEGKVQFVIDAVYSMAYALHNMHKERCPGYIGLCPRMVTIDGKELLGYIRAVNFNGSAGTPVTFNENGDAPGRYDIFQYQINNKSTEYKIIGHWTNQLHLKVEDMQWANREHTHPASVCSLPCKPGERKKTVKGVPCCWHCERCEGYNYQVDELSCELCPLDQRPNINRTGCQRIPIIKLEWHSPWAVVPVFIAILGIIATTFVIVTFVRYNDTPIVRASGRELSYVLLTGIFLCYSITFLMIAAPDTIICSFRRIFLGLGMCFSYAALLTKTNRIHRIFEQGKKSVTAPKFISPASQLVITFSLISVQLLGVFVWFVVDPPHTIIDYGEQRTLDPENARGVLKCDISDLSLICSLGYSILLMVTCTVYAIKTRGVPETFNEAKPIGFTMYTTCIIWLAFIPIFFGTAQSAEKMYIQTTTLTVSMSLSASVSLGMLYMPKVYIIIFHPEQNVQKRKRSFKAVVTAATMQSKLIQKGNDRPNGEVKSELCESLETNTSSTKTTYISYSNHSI

SMILES	z-score
Cc1ccc(Cn2c([N+](=O)[O-])cnc2C)cc1	-0.107
c1ccc(CSCc2nc3ccccc3[nH]2)cc1	0.074
Cc1ccccc1C(=O)N(C)Cc1ccccc1	-0.0368
Cn1nc(OC(=O)Nc2ccccc2)cc1C(F)(F)F	-0.0183
COC(=O)c1c(C)oc2ccc(N(C(=O)c3ccncc3)S(=O)(=O)c3ccccc3)cc12	-0.409
CCO/N=C(\C)c1c(O)cc(C(C)C)n(-c2ccccc2)c1=O	-0.078
CSc1ccc(C(=O)/C=C/c2ccc(N)cc2)cc1	-0.17
O=[N+]([O-])c1cc(C(F)(F)F)ccc1Oc1cccnc1[N+](=O)[O-]	-0.411
O=C1CC(NCc2cccs2)C(=O)N1c1ccc(Cl)cc1 (centres undefined)	-0.338
Cc1ccc2oc(=O)c3cnn(CC(=O)N(CCN(C)C)Cc4ccco4)c3c2c1	-0.171
O=C(NCc1ccccn1)c1cn(-c2ccccc2)nc1-c1ccc(Cl)cc1	-0.541
CC(=O)c1cccc(NC(=O)COC(=O)COc2c(Cl)cc(Cl)c3ccc(C)nc23)c1	1.42
Cc1cccc(Cn2c(C(C)(C)C)cc3cccnc32)c1	0.162
N=C1c2ccccc2CN1NC(=O)c1cccc(S(=O)(=O)N2CCOCC2)c1	-0.0374
Cc1ccccc1NC(=O)COC(=O)Cc1cccc(C(F)(F)F)c1	-0.133
CCNc1nc(NC(C)C)nc(ON=C(C)C)n1	0.566
O=C(NC1CCCCCC1)c1cc2n(n1)C(C(F)(F)F)CC(c1ccco1)N2 (centres undefined)	-0.546
CN1CCN(CCCNC(=O)CCCOc2cc(=O)n(C)c3ccccc23)CC1	-0.144
COC(=O)C(/C=N/OCc1ccc([N+](=O)[O-])cc1)NC(=O)c1ccccc1 (centres undefined)	-0.745
N#Cc1c(NC(=O)CCN2C(=O)c3ccccc3C2=O)oc(-c2ccccc2)c1-c1ccccc1	-1.42
O=C(CCl)Nc1cccc(-c2cnc3ccccc3n2)c1	-0.282
COc1ccc(NS(=O)(=O)c2ccc(OC)c3ccccc23)cn1	-0.0858

SMILES	z-score
COc1ccc(OCC(=O)OC2CCN(C)CC2)cc1	0.0181
CC(C)COc1ccc(CNC(=S)NCc2ccccc2)cc1	0.59
Cc1ccccc1C(O)c1ccncc1 (centres undefined)	0.19
CC(/C=C(\NC(=O)c1ccccc1)C(=O)N=Nc1c(O)[nH]c2ccc(C)cc12)=C\c1ccccc1	-0.172
COc1ccc(CC(=O)n2nc(-c3cccnc3)nc2N)cc1	1.36
C=CCn1c(C)cc(C(=O)CSc2nnc(-c3cccc(S(=O)(=O)N(CC)CC)c3)o2)c1C	-0.096
COc1cccc(C(O)c2nc3ccccc3n2C(C)C)c1 (centres undefined)	-0.377
Cc1ccc(C(=O)N/C(=C/c2ccco2)C(=O)OCN2C(=O)c3ccccc3C2=O)cc1	0.551
CN(C(=O)COc1cc(=O)n(C)c2ccccc12)c1ccc(Br)cc1	-0.219
Cc1oc(-c2ccc(F)cc2)cc1-c1nn2c(-c3ccco3)nnc2s1	-0.427
Cc1ccc(/C=N/NC(=O)c2cccs2)o1	0.639
CCCCOCCCNC(=O)COc1ccccc1	-0.237
CC(C)CCNC(=O)c1nnc(Cc2ccc(Cl)cc2)o1	0.102
Cc1ccc(S(=O)(=O)NC(Cc2c[nH]c3ccccc23)C(=O)O)cc1 (centres undefined)	-0.0187
Cc1ccc(C)c(OCC(O)CN2CCC(CN3C(=O)c4cccc5cccc(c45)C3=O)CC2)c1 (centres undefined)	-0.000796
CC1=NN(c2nc(-c3ccccc3)cs2)C(=O)C1	-0.297
Cc1ccc(NC(=O)c2ccncc2)cc1[N+](=O)[O-]	-0.142
Cc1ccc(S(N)(=O)=O)cc1NC(=O)/C=C/c1cccs1	-0.204
O=c1ccc(NS(=O)(=O)c2ccc(Cl)cc2)cn1Cc1ccc(Cl)c(Cl)c1	-0.0823
O=C(O)c1ccc(NC(=S)Nc2ccccc2)cc1	-0.031
C/C(CC(=O)Nc1ccccn1)=N\NC(=O)c1ccc2ccccc2c1	-0.53
CC(C)N(Cc1nc(-c2ccccc2)no1)C(=O)CCCN1C(=O)c2ccccc2C1=O	-0.305

SMILES	z-score
Cc1ccc(-c2nnc(SCC(=O)n3c4c(c5ccccc53)CCCC4)o2)cc1	0.0821
Cc1ccnc(NS(=O)(=O)c2ccc(N3C(=O)c4ccccc4C3=O)cc2)n1	0.0228
O=C(N/C=C\c1ccccc1)NCc1ccc(Cl)cc1	0.197
NS(=O)(=O)c1ccc(CCNC(=O)CNC(=O)C2CCCCC2)cc1	-0.063
COC(=O)c1sccc1NC(=O)c1ccc(OC)cc1OC	-0.199
COc1ccc(C2(C(N)=O)CCCCC2)cc1OC	-0.217
Cc1ccccc1Nc1nc(N)nc(CSCc2c(C)noc2C)n1	-0.284
COc1ccc(C(=O)NCC(O)COc2ccc(C(C)(C)C)cc2)cc1[N+](=O)[O-] (centres undefined)	-0.158
CCC(CC)c1nc(C#N)c(NCc2ccccc2)o1	-0.971
CCOC(=O)C1=C(CSc2nccn2C)NC(=O)NC1c1ccc(OC)cc1 (centres undefined)	-0.026
CC1(C)Oc2ccc3ccc(=O)oc3c2/C(=C/Nc2ccccc2)C1=O	-0.126
CCC(=O)N1CCN(c2ccc(NC(=O)c3c(F)c(F)c(OC)c(F)c3F)cc2)CC1	0.0901
COc1cccc(/C=C(/C(=O)OCC(=O)NC2CCCC(C)C2C)c2ccccc2)c1 (centres undefined)	-0.279
CC(/C=C1\SC(=S)N(CC(=O)N2CCN(c3ccccc3)CC2)C1=O)=C\c1ccccc1	0.122
CCCCN(CC)CCCNC(=O)Cn1nc(Cc2cccnc2)c2ccccc2c1=O	0.275
COCCN(Cc1cc2cc3c(cc2n2nnnc12)OCO3)C(=O)c1ccccc1F	0.896
NS(=O)(=O)c1cc(C(=O)NCCOc2ccccc2)c(Cl)cc1Cl	-0.133
O=C(CSc1nnc(-c2ccccc2)o1)N1CCN(c2ccccc2)CC1	-0.148
CCN(CC)C(=O)CSC1=N/C(=C/c2ccco2)C(=O)N1c1ccc(OC)c(Cl)c1	0.509
Cc1ccc(-c2nc3ncccc3o2)cc1NC(=O)COc1ccccc1	0.0918
O=C(CCCCn1c(=O)c2ccccc2n(Cc2ccc(Cl)cc2)c1=O)NCc1ccco1	0.768
CCCCNC(=O)Nc1c(C(=O)OC)[nH]c2ccc(C)cc12	-0.153

SMILES	z-score
CC(NC(=O)/C(C#N)=C/c1cn[nH]c1-c1ccccc1)c1ccccc1 (centres undefined)	-1.15
Cn1c2c(c(=O)n(C)c1=O)C(C(F)(F)F)(C(F)(F)F)N=C(c1ccc(Cl)cc1)N2	-0.284
O=C(/C(=N/N=C/c1ccc(O)c(O)c1)c1ccccc1)c1ccccc1	-0.141
CCOc1ccc(NC(=O)CCS(=O)(=O)c2ccc3c(c2)CCCN3C(C)=O)cc1	0.801
Cc1ccc(S(=O)(=O)Cn2nnnc2CN2CCOCC2)cc1	-0.0838
COCn1ccnc1C(O)(c1ccc(OC)cc1)c1ccc(OC)cc1	-0.182
O=[n+]1c2c(n([O-])c3cc(Cl)ccc31)CCCC2	-0.371
Cc1cccc(NC(=O)c2cc(NC(=O)c3ccccc3)ccc2N2CCCCC2)c1	-0.201
CCN(c1ccc2c(c1)OCO2)S(=O)(=O)c1cc(Br)cc2c1N(C(=O)C1CC1)CC2	-2.92
COc1ccc(C2=C(C=Nc3c(C)n(C)n(-c4ccccc4)c3=O)C(c3ccccc3C)c3ccccc3O2)cc1OC (centres undefined)	0.339
COc1cccc(N(CC(=O)Nc2cccc(N(C)S(C)(=O)=O)c2)S(C)(=O)=O)c1	-0.0275
Cc1sc2nc(CN(Cc3ccccc3)C(=O)NC3CCCCC3)[nH]c(=O)c2c1C	-0.145
CCOC(=O)c1cnc2ccc(C)cc2c1Sc1ccc(F)cc1	-0.262
Cc1ccc(Nc2nc(-c3sc(NC(=O)c4ccco4)nc3C)cs2)cc1	-0.13
CC(=O)Oc1cc2c(C(=O)NCCN3CCOCC3)c(C)oc2c2ccccc12	0.772
O=C(c1ccco1)N1CCN(Cc2nc3ccc([N+](=O)[O-])cc3c(=O)n2-c2ccccc2F)CC1	-0.099
COc1ccccc1NC(=O)C1C2C=CC3(CN(Cc4cccnc4)C(=O)C13)O2 (centres undefined)	1.76
CCc1ccccc1N=C1S/C(=C/c2ccccc2OCC(=O)N2CCOCC2)C(=O)N1C	0.0462
Cc1ccc(S(=O)(=O)Nc2ccc3nc(N)sc3c2)cc1	0.381
CC(=O)Nc1cccc(NS(=O)(=O)Cc2ccc(Cl)cc2)c1	0.0926
CCOC(=O)c1sc(NC(=O)Nc2ccc(Cl)cc2)nc1C	-0.204
CCCCOc1ccc(C(=O)OCC(=O)Nc2cc(C)c(C)cc2[N+](=O)[O-])cc1	-0.346

SMILES	z-score
O=C1NCCCC1C(=O)NCCNC(=O)C(F)(F)F (centres undefined)	-0.397
COc1ccc(OC)c(NC(=O)CSc2nnc(CNC(=O)c3ccco3)o2)c1	-0.27
Cc1onc(-c2ccccc2)c1C(=O)NCC1CCCO1 (centres undefined)	0.327
CCOc1ccc2[nH]cc(C(=O)N3CCN(CC)CC3)c(=O)c2c1	-0.0379
C/C(N)=C(/C#N)C(=O)CN1CCCCC1	0.678
Cc1ccc(C)c(NC(=O)c2sc(Cl)nc2C)c1	-0.149
CC1=CS(=O)(=O)CC1Sc1nc2ccccc2[nH]1 (centres undefined)	-0.0966
CCn1c2c(c3cc(Br)ccc31)CCC/C2=N\O	-0.383
COCCCNC(=O)CN1C(=O)/C(=C\c2ccc(C)cc2)Sc2ccccc21	-0.0454
C/C(=N/NC(=O)c1ccc(NC(=O)c2ccc(F)cc2)cc1)c1ccccc1	0.427
CC(=O)NCCNC(=O)CNC(=O)c1ccc(Cl)cc1	-0.109
N#Cc1nc(COc2ccc(Br)cc2)oc1N1CCCCCC1	-0.364
COc1cc(NS(=O)(=O)c2cc(C)ccc2OC)c(OC)cc1Cl	0.494
CCCCn1c(CN2CCN(CCO)CC2)nc2ccccc21	0.204
COc1ccc(N(CC(=O)NCCSCc2c(F)cccc2Cl)S(C)(=O)=O)cc1OC	-0.0849
CCCC(=O)Nc1ccc(N2CCCCC2)cc1	0.0444
CC(C)Oc1ccc(C2CNC(=O)C2)cc1 (centres undefined)	-0.236
c1ccc(-c2ccc(-n3ccnc3)cc2)cc1	-0.146
O=C(NNc1nc2ccccc2s1)c1ccccc1F	1.11
O=C(NC(C(=O)O)c1ccccc1)c1ccccc1 (centres undefined)	0.488
CN(C)c1ccc(NC(=O)c2sc(SCC(=O)Nc3nccs3)nc2N)cc1	-0.189
